From article PMC8429977, “Phosphorylation of slit diaphragm proteins NEPHRIN and NEPH1 upon binding of HGF promotes podocyte repair” (The Journal of Biological Chemistry, 2021) come the findings set out here.

Assay [1] concerns the target T1, His-FLAG-NEPHRIN-extracellular domain (ECD) (Mus musculus, UniProt Q9QZS7 37-1078).
T1 sequence (looked up): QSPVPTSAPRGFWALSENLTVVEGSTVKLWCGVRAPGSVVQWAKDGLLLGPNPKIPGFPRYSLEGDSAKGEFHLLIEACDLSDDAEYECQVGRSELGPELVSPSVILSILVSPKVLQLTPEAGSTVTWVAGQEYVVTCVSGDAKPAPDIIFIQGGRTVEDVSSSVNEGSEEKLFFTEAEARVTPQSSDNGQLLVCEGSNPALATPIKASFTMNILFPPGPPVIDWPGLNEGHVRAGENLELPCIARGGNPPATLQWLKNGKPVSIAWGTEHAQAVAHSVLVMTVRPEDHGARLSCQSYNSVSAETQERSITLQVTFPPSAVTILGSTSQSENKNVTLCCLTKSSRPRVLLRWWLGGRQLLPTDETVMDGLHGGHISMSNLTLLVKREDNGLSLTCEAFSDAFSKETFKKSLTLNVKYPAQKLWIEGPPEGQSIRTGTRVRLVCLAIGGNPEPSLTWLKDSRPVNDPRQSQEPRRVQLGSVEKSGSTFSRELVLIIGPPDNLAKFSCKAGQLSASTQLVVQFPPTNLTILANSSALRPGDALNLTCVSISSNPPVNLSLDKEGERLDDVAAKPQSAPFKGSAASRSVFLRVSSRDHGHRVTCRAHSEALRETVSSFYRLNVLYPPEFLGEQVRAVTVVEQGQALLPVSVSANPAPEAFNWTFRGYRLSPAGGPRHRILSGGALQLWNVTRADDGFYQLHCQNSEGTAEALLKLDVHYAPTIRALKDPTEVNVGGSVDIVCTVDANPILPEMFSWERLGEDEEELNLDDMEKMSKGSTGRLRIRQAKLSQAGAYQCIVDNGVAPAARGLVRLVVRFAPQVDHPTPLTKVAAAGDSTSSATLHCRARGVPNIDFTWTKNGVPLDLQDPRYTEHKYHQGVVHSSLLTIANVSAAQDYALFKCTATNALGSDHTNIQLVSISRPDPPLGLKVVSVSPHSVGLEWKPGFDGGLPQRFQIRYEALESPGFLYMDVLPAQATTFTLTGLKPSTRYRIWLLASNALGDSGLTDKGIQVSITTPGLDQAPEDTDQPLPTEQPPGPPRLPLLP
The assay is described as follows: SPR; Biacore T200; HGF immobilised on CM5 chip (10 mM acetate pH 5.0, ~2000 RU); increasing concentrations of FLAG-NEPH1-FL and FLAG-NEPHRIN-ECD flowed at 50 μl/min; HBS-P; regeneration 2 M NaCl; steady-state analysis. The conditions noted are these: both partners purified. For orientation: Surface plasmon resonance follows binding to a sensor surface in real time, without labels.

Assay [2] deals with T2, His-FLAG-NEPH1-full length (FL) (Mus musculus, UniProt Q80W68 48-789).
T2 sequence (looked up): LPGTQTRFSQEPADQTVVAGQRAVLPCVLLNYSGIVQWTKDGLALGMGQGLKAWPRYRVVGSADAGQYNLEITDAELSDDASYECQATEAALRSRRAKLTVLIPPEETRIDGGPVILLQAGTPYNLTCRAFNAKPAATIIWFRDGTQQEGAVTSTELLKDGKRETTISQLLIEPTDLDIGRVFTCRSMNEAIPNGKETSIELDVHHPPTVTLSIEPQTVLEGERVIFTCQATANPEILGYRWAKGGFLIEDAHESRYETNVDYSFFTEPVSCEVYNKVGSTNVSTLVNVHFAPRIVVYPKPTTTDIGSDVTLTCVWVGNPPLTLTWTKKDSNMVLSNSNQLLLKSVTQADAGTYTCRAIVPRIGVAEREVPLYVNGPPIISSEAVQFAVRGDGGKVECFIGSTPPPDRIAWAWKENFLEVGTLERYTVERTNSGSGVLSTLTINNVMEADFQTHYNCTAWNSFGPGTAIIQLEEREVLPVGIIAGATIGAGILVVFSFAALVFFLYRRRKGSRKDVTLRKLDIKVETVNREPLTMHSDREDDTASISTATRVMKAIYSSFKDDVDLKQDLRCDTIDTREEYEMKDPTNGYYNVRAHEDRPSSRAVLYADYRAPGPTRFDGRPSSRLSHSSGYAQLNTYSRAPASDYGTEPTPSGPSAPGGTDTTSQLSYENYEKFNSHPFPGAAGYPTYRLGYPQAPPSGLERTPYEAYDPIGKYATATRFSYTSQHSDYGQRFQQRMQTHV
The assay is described as above. The conditions noted are these: both partners purified.

B1: purified human recombinant HGF (ligand)
chain: not shown
notes: hepatocyte growth factor, human, recombinant, purified; also called hepatocyte growth factor; recombinant human active HGF; source: bought: Sigma
The term Kd denotes the concentration at which binding is half-saturated. As to B1, the results for the dissociation constant Kd in assay [1] and in assay [2] were 2.4 nM and 278 nM, respectively.
